Experimental data from PubChem BioAssay AID485360 (National Center for Advancing Translational Sciences (NCATS), 2010).
Out of some 230,000 compounds screened, about 1,500 (0.65%) were called active. The inconclusive results got no clear call from the source; some entries with a clear call stand among them for comparison. Calls follow the shape of the dose curve; as a rule, active = well fitted inhibition curve with a large enough effect; inconclusive = small, poorly fitted or top-dose-only effect; inactive = no such curve, though single readings can be large or run the other way. Potencies beside an inconclusive call are fits to weak or partial responses and may not hold up.

Molecular target: Lethal(3)malignant brain tumor-like protein 1 (Homo sapiens) (UniProt Q9Y468)
Assay: qHTS Assay for the Inhibitors of L3MBTL1; also: nearly all actives have a fitted effect of over 60% in size
Conditions: AlphaScreen L3MBTL1–H3K9me1 peptide binding; activity, negative = inhibition: at 57.1 µM (top of the series)
Summary of the method: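 Read-out is AlphaScreen signal from streptavidin donor and nickel chelate acceptor beads (10 ug/mL final each) bridging L3MBTL1 (50 nM) and biotinylated K9-monomethylated H3(1-15) peptide (75 nM), after 30 min compound exposure at room temperature.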
% is scaled to controls: 0 for no effect and ±100 for the full control effect; potency is read from the fitted curve at half-maximal effect; tags tell the direction and shape of the fitted curve.

Chain of UniProt Q9Y468 (Q9Y468 whole entry, looked up): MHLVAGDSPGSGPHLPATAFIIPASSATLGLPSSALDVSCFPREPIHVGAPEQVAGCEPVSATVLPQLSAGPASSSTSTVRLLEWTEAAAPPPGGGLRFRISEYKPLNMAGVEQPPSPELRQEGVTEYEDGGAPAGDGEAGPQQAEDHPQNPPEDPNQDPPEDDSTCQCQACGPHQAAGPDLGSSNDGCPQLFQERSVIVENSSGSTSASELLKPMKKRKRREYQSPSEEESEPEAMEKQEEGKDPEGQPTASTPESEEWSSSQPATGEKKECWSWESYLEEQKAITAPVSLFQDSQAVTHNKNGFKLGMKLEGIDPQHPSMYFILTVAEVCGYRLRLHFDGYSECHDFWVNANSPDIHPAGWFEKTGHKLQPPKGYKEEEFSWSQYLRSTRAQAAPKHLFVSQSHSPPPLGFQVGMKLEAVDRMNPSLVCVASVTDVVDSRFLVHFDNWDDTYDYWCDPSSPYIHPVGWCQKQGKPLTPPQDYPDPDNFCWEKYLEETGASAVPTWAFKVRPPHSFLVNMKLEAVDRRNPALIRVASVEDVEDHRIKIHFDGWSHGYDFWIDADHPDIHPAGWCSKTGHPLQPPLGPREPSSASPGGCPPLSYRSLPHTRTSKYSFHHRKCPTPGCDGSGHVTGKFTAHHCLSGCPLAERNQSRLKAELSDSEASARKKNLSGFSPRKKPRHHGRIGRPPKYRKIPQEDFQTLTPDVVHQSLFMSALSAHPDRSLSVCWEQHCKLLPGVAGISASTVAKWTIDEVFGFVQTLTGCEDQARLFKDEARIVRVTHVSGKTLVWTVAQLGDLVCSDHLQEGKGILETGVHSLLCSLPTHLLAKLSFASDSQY

Q: Which Potency does the source give for `CCOc1cc(C(=O)Nc2ncn[nH]2)cc(OCC)c1OCC` here?
A: The Potency was “inactive”.

Q: `O=C(CCN1C(=O)/C(=C/c2ccc3c(c2)OCO3)SC1=S)Nc1cccc(C(=O)O)c1` was tested. Which Potency did it give?
A: The Potency was “inactive”.

Q: For `Cn1cc(C(=O)N/N=C/C2=C(N3CCOCC3)C(=C\c3ccccc3)/CC2)ccc1=O`, which Potency is on record?
A: The Potency was “inactive”.

Q: `Cc1ccc(-c2csc(NC(=O)/C=C/c3ccco3)c2C(=O)O)cc1` was tested. Which Potency did it give?
A: Its Potency is inconclusive: 31.6 µM [inhibitor, single point].

Q: With `O=C(O)C1C2C=CC(C2)C1C(=O)N1CCc2ccccc21` (stereo not drawn) as the molecule, how does the activity, negative = inhibition read?
A: Its activity, negative = inhibition is inactive: -1.42% [at 11.4 µM].

Q: How did the Potency turn out when `CC(C)NC(=O)c1ccc(C2SCC(=O)N2Cc2ccccc2)cc1` (stereo not drawn) was run?
A: The Potency was inconclusive: 8.91 µM [inhibitor, single point].

Q: For `Cc1ccn2c(C(=O)NN=C3CCCCCCC3)c(C)nc2c1`, which Potency is on record?
A: The Potency was “inactive”.

Q: With `CCC1CCc2c(c3ccccc3[nH]c2=O)O1` (stereo not drawn) as the molecule, how does the Potency read?
A: The Potency was “inactive”.

Q: For `CC(C)(C)c1ccc(C(=O)NCCC(=O)NNC(=O)COc2ccc(F)cc2)cc1`, which Potency is on record?
A: The Potency was inconclusive: 0.708 µM [inhibitor, single point].

Q: How did the Potency turn out when `Cc1cc(C)cc(NC(=S)N2CCN(c3ncccn3)CC2)c1` was run?
A: The Potency was inconclusive: 0.891 µM [inhibitor, single point].

Q: Which Potency does the source give for `COc1ccc(C(=O)CC(Nc2ccc([N+](=O)[O-])cc2)c2ccc(OC)cc2)cc1` (stereo not drawn) here?
A: The Potency was “inactive”.

Q: How did the Potency turn out when `Cc1nnc2ccc(-c3ccc(NS(=O)(=O)c4ccccc4F)cc3)nn12` was run?
A: The Potency was “inactive”.

Q: `Cc1nnc(Nc2ccc(O)cc2)[nH]c1=O` was tested. Which Potency did it give?
A: The Potency was inconclusive: 28.2 µM [inhibitor, single point].

Q: How did the Potency turn out when `O=C(NC1C2CC3CC(C2)CC1C3)C1CC1` (stereo not drawn) was run?
A: Its Potency is inconclusive: 5.62 µM [inhibitor, single point].

Q: `O=C(COC(=O)C1CCCC1)Nc1ncc(Cl)cc1Cl` was tested. Which Potency did it give?
A: The Potency was inconclusive: 28.2 µM [inhibitor, single point].

Q: `O=C(O)c1ccc(S(=O)(=O)c2ccc3c(c2)C(=O)N(Cc2ccco2)C3=O)cc1` was tested. Which Potency did it give?
A: Its Potency is inconclusive: 31.6 µM [inhibitor, single point].

Q: With `CN1CCN(C(=O)CSc2ccc(C(F)(F)F)cc2[N+](=O)[O-])CC1` as the molecule, how does the Potency read?
A: Its Potency is “inactive”.

Q: With `COc1ccc(NC(=O)NCCN2CCc3ccccc3C2)cc1` as the molecule, how does the Potency read?
A: The Potency was “inactive”.

Q: Which Potency does the source give for `O=[N+]([O-])c1ccccc1/C=N/N1CCN(Cc2ccccc2)CC1` here?
A: Its Potency is inconclusive: 15.8 µM [inhibitor, partial curve].

Q: How did the Potency turn out when `Cc1ccc(OCCN2CCN(CC(O)Cn3c4ccccc4c4ccccc43)CC2)cc1` (stereo not drawn) was run?
A: Its Potency is inconclusive: 0.708 µM [inhibitor, single point].

Q: `Cc1ccccc1Nc1nnc(SCC(=O)NCc2ccco2)s1` was tested. Which Potency did it give?
A: Its Potency is inconclusive: 25.1 µM [inhibitor, single point].

Q: Which Potency does the source give for `CN(C)c1cccc(C(=O)OC(C(=O)Nc2ccc([N+](=O)[O-])cc2Br)c2ccccc2)c1` (stereo not drawn) here?
A: The Potency was inconclusive: 35.5 µM [inhibitor, single point].

Q: `Cc1cccc(C=Nc2ccc3c4c(cccc24)CC3)c1O` was tested. Which Potency did it give?
A: Its Potency is “inactive”.

Q: Which Potency does the source give for `CNc1ccccc1C(C)(C)c1cc(-c2cccc([N+](=O)[O-])c2)no1` here?
A: The Potency was inconclusive: 39.8 µM [inhibitor, partial curve, poor fit].

Q: Which Potency does the source give for `O=C(O)c1cccc(-n2cccc2/C=N/O)c1` here?
A: The Potency was active: 10 µM.

Q: `COc1cc(/C=N/NC(=O)c2ccc(C)nc2)cc([N+](=O)[O-])c1O` was tested. Which Potency did it give?
A: The Potency was inconclusive: 7.08 µM [inhibitor, single point].

Q: How did the Potency turn out when `CCOC(=O)CC(C)(C)/C(C)=N/Nc1ccc([N+](=O)[O-])cc1[N+](=O)[O-]` was run?
A: Its Potency is inconclusive: 31.6 µM [inhibitor, partial curve].

Q: How did the Potency turn out when `COc1ccc(CC(=O)NNC(=O)COc2ccc(F)cc2)cc1S(=O)(=O)N1CCOCC1` was run?
A: Its Potency is “inactive”.

Q: How did the Potency turn out when `COc1cccc(COc2cc3ccccc3nc2C)c1` was run?
A: Its Potency is “inactive”.

Q: `C[C@@H](C(=O)NCc1ccccc1)[C@@H]1C[C@@]1(C)[C@@H](NC(=O)OCc1ccccc1)c1ccccc1` was tested. Which Potency did it give?
A: Its Potency is “inactive”.

Q: For `Cc1sc(NC(=O)c2sc3nc4c(C)cccc4cc3c2N)c(C#N)c1C`, which Potency is on record?
A: The Potency was active: 17.8 µM.

Q: Which Potency does the source give for `N#Cc1c(Cl)nsc1NN` here?
A: The Potency was inconclusive: 39.8 µM [inhibitor, single point].

Q: With `COC(=O)c1ccc(NC(=O)c2ccc3c(c2)NC(=O)C2CCCN32)cc1` (stereo not drawn) as the molecule, how does the Potency read?
A: Its Potency is inconclusive: 35.5 µM [inhibitor, single point].

Q: `CCCCNC(=O)O[C@@H]1C[C@H]2CCCC(=O)N3CC[C@@H](C1)[C@@H]23` was tested. Which Potency did it give?
A: The Potency was “inactive”.

Q: Which Potency does the source give for `O=C(Nc1nnc(SCC(=O)N2CCCCC2)s1)C1CCCCC1` here?
A: The Potency was inconclusive: 0.794 µM [inhibitor, full curve, poor fit].

Q: `COc1ccccc1NC(=O)C(=O)N1CCCC1` was tested. Which Potency did it give?
A: The Potency was inconclusive: 6.31 µM [inhibitor, single point].

Q: Which Potency does the source give for `CC(=O)Nc1cccc(NC(=O)Nc2ccc(C)c(Cl)c2)c1` here?
A: Its Potency is “inactive”.

Q: `O=C(O)c1cc(O)c2c(c1)C(=O)c1cccc(O)c1C2=O` was tested. Which activity, negative = inhibition did it give?
A: The activity, negative = inhibition was inconclusive: -97% [inhibitor].

Q: How did the Potency turn out when `CCOC(=O)N1CCN(S(=O)(=O)c2ccc(C)c([N+](=O)[O-])c2)CC1` was run?
A: Its Potency is inconclusive: 0.1 µM [inhibitor, full curve, poor fit].

Q: With `O=C(Nc1ccc(N2CCOCC2)cc1)C1=NN(c2ccccc2)C(=O)CC1` as the molecule, how does the Potency read?
A: The Potency was “inactive”.

Q: How did the Potency turn out when `CCc1ccc(-n2c(SCC(=O)N3Cc4ccccc4CC3C(=O)O)nnc2-c2ccncc2)cc1` (stereo not drawn) was run?
A: The Potency was “inactive”.

Q: How did the Potency turn out when `Cc1csc(NC(=O)c2ccc(C)o2)n1` was run?
A: The Potency was “inactive”.

Q: For `Cc1cccc(Nc2nc(-c3sc(C)nc3C)cs2)c1`, which Potency is on record?
A: Its Potency is “inactive”.

Q: With `CN(C)C(=O)c1cn(-c2ccccc2)nc1-c1cc2ccccc2o1` as the molecule, how does the Potency read?
A: The Potency was inconclusive: 0.794 µM [inhibitor, full curve, poor fit].

Q: How did the Potency turn out when `O=C(Cc1ccc(Cl)cc1)Oc1cccc2cccnc12` was run?
A: Its Potency is inconclusive: 39.8 µM [inhibitor, single point].

Q: For `O=C(NCCc1ccccc1)c1ccco1`, which Potency is on record?
A: Its Potency is inconclusive: 8.91 µM [inhibitor, single point].

Q: How did the Potency turn out when `Oc1ccc(N=C/C=C/c2cccc(Br)c2)cc1-c1nc2ccccc2s1` was run?
A: The Potency was inconclusive: 22.4 µM [inhibitor, single point].

Q: `CC1=NN(c2ccccc2)C(=O)/C1=C/c1ccc(Cl)cc1` was tested. Which Potency did it give?
A: Its Potency is inconclusive: 35.5 µM [inhibitor, single point].

Q: With `CCS(=O)(=O)C1=NN2C(=N)/C(=C\c3ccc(SCc4ccco4)o3)C(=O)N=C2S1` as the molecule, how does the Potency read?
A: Its Potency is active: 31.6 µM.

Q: Which Potency does the source give for `Cc1nn(Cc2ccc(C(=O)Nc3ccccc3C(F)(F)F)o2)c(C)c1Br` here?
A: Its Potency is inconclusive: 39.8 µM [inhibitor, single point].

Q: With `Cc1cccc(NC(=O)c2ccccc2-c2ccccc2)c1` as the molecule, how does the Potency read?
A: The Potency was inconclusive: 6.31 µM [inhibitor, single point].

Q: `O=C(c1ccc(Cl)cc1Cl)N1CCN(c2ccc(N3CCOCC3)nn2)CC1` was tested. Which Potency did it give?
A: Its Potency is inconclusive: 0.316 µM [inhibitor, full curve, poor fit].

Q: Which Potency does the source give for `COc1ccc(/C=N\NC(=O)c2ccc(=O)[nH]n2)cc1O` here?
A: Its Potency is inconclusive: 5.01 µM [inhibitor, single point].

Q: With `CC1=NN(c2ccc(C)cc2)C(=O)/C1=C\c1ccc(Br)s1` as the molecule, how does the Potency read?
A: The Potency was inconclusive: 3.16 µM [inhibitor, single point].

Q: Which Potency does the source give for `CCCOC1CCCN(Cc2cn(C)nc2-c2ccccc2F)C1` (stereo not drawn) here?
A: Its Potency is inconclusive: 39.8 µM [inhibitor, single point].

Q: For `CCOc1ccc(NS(=O)(=O)c2cc3c(cc2C)N(C)CCO3)cc1`, which Potency is on record?
A: The Potency was “inactive”.

Q: How did the Potency turn out when `O=C(/C=C/c1ccco1)NCc1ccccn1` was run?
A: The Potency was inconclusive: 39.8 µM [inhibitor, single point].

Q: Which Potency does the source give for `COc1ccc(C(=O)NC(=S)NNC(=O)c2ccc3ccccc3n2)cc1` here?
A: Its Potency is inconclusive: 39.8 µM [inhibitor, single point].

Q: How did the Potency turn out when `CCOC(=O)[C@@H]1[C@H]2COc3cc(OC)ccc3[C@@H]2N2C(=O)N(c3ccc(F)cc3)C(=O)[C@]12C` was run?
A: The Potency was inconclusive: 0.708 µM [inhibitor, single point].

Q: Which Potency does the source give for `COc1cccc(C(=O)NC(=S)Nc2ccc(N3CCCC3)cc2)c1` here?
A: The Potency was inconclusive: 31.6 µM [inhibitor, single point].

Q: Which Potency does the source give for `Cc1cccc(NC(=S)NC2CC3CCCC(C2)N3Cc2ccco2)c1` (stereo not drawn) here?
A: Its Potency is inconclusive: 25.1 µM [inhibitor, single point].

Q: With `N#C/C(=C(/O)c1ccccc1F)c1nc2cc(C(F)(F)F)ccc2s1` as the molecule, how does the Potency read?
A: The Potency was “inactive”.

Q: With `COc1ccc(N2CCN(C(=O)c3sc4nc(-c5ccc(F)cc5)cn4c3C)CC2)cc1` as the molecule, how does the Potency read?
A: The Potency was “inactive”.

Q: For `CCC(C)(C)C(=O)Nc1nnc(CCc2ccccc2)s1`, which Potency is on record?
A: Its Potency is inconclusive: 7.08 µM [inhibitor, single point].

Q: With `OC(C#Cc1ccccn1)c1cccs1` (stereo not drawn) as the molecule, how does the Potency read?
A: The Potency was inconclusive: 39.8 µM [inhibitor, single point].

Q: `CCN(CC)CCCNCC(=O)Nc1ccc(OC)c(Cl)c1` was tested. Which Potency did it give?
A: The Potency was “inactive”.

Q: `Cc1cccc(N(CC(=O)NC2CCCC2)C(=O)c2cc3cc4cccc(C)c4nc3s2)c1C` was tested. Which Potency did it give?
A: Its Potency is inconclusive: 35.5 µM [inhibitor, single point].

Q: Which Potency does the source give for `O=[N+]([O-])c1ccc(Oc2ccc(F)cc2Br)c2ccncc12` here?
A: The Potency was inconclusive: 35.5 µM [inhibitor, single point].

Q: How did the Potency turn out when `COC(=O)Cc1cc(=O)n(-c2nc3ccccc3[nH]2)[nH]1` was run?
A: Its Potency is active: 12.6 µM.

Q: How did the Potency turn out when `O=C(/C=C/Nc1ccc(Nc2ccccc2)cc1)c1cccs1` was run?
A: The Potency was inconclusive: 22.4 µM [inhibitor, partial curve, poor fit].

Q: With `Clc1ccccc1CSc1nnc(-c2ccncc2)o1` as the molecule, how does the Potency read?
A: The Potency was “inactive”.

Q: Which Potency does the source give for `Cn1c(SC/C=C/c2ccccc2)nnc1-c1cccs1` here?
A: The Potency was inconclusive: 3.16 µM [inhibitor, full curve].

Q: `N#CCCN(C(=O)COC(=O)CCc1c[nH]c2ccccc12)c1ccc(F)cc1` was tested. Which Potency did it give?
A: The Potency was inconclusive: 3.16 µM [inhibitor, partial curve].
